# Assay results reported in PubChem BioAssay (NCI).
#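 Tested at 5 concentrations; 48 h exposure; 96-well plates; endpoints linearly interpolated, else capped at highest concentration. At the GI50, growth is halved. TGI denotes the concentration required for complete inhibition of growth.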
# Tested on: NCI-H322M lung
# Assay: inhibition of tumour cell growth, NCI panel, 48 h
SMILES,GI50 [µM],TGI [µM]
CCOC(=O)c1cc(C(=O)c2cc(OC)c(OC)c(OC)c2)n2c1ccc1ccccc12,0.708,> 100
O=[N+]([O-])c1ccc(C2CC(c3ccccc3)=Nc3ccccc3S2)cc1 (stereo unspecified),> 100,> 100
CN1CCC2(CC1)NC(=O)c1c(c3ccc(Cl)c(Cl)c3n1C)C2C#N (stereo unspecified),8.06,26.5
c1ccc2cc(NCNc3ccc4ccccc4c3)ccc2c1,,> 70.3
Cc1occc1C(=S)Nc1ccc(Cl)c(/C=N/OC(C)(C)C)c1,,39.8
CC(=NNC(=S)Nc1cccc(C)c1)c1cccc(C(C)=NNC(=S)Nc2cccc(C)c2)n1,,37.4
CN(C)CCCNc1ncnc2c1ncn2C1OC(CO)C(O)C1O (stereo unspecified),,> 100
NC(=O)c1ncn(C2OC(CO)C(O)C2O)c1NC=O (stereo unspecified),,> 100
CC1=NN(c2ccc(S(=O)(=O)O)cc2)C(=O)/C1=C/c1ccc(Cl)cc1,,> 100
CCCNCC(=O)O[C@]1(CC)C(=O)OCc2c1cc1n(c2=O)Cc2cc3ccccc3nc2-1,,5.85
NNC(=O)CCSc1ccccc1,,> 100
Cc1[nH]c(=O)[nH]c(=O)c1/C=C/C(=O)NC(CO)CS(=O)Cc1ccccc1 (stereo unspecified),,> 300
COc1ccc(Sc2nc3cc(N)cc(N)c3nc2-c2ccccc2)cc1,35.5,> 100
CC(C)(C)OC(=O)NC(Cc1ccc(O)cn1)C(=O)O (stereo unspecified),,> 100
O=C(OC1CCC2OOC1O2)c1ccc([N+](=O)[O-])cc1 (stereo unspecified),,> 100
O=C(NCc1cccnc1)C1COc2cc(-c3cc(=O)c4ccccc4o3)ccc2O1 (stereo unspecified),,> 100
N#Cc1c(N)n2c(nc1=Nc1ccc(Cl)cc1)sc1cc(Cl)ccc12,28.1,> 100
COC(=O)C1=COC(C)C2CN3CCc4c([nH]c5cc(OC)c(OC)cc45)C3CC12 (stereo unspecified),,> 100
Cc1cc(C)c(O)c(CN2CCN(C(C)C)CCN(C(C)C)CC2)c1,,> 100

SMILES,GI50 [µM],TGI [µM]
NC(N)=NC(N)=Nc1cnccn1,,> 100
CCOC(=O)Cc1csc(Nc2ccc(OCC)cc2)n1,,> 100
N#Cc1cc([N+](=O)[O-])ccc1NC(=O)/C(=N\NC(=O)c1ccncc1)C(c1cnc2ccc([N+](=O)[O-])cc2n1)[N+](=O)[O-] (stereo unspecified),,11
O=C1[C@@H]2C(c3ccccc3[N+](=O)[O-])=[N+](c3ccccc3)O[C@@H]2C(=O)N1c1ccc(Cc2ccc(N3C(=O)[C@H]4C(c5ccccc5[N+](=O)[O-])=[N+](c5ccccc5)O[C@H]4C3=O)cc2)cc1,,> 100
Cn1nc(C(F)(F)F)cc1-c1c[nH]c(OCc2ccc(Cl)cc2)c(-c2ccc(Cl)c(C(F)(F)F)c2)c1=O,1.4,> 50
COc1cc2c(cc1OC)CC(=O)Nc1cc(OC)c(OC)cc1CC2,,> 100
Cc1cc(Nc2ncc3c(n2)N(C)C(=O)N(c2cc(NC(=O)c4cccc(C(F)(F)F)c4)ccc2C)C3)n(C)n1,0.0278,0.118
CN(C)CCCSc1nc2c(c(=N)n1-c1ccccc1)c(=S)n(-c1ccccc1)c(=S)n2-c1ccccc1,,3.71
C=C(C)[C@@]1(O)CCCC[C@@H]1CC(Sc1ccccc1)Sc1ccccc1,,32.8
C[Si](C)(N[Si](C)(C)OCCc1ccccc1)OCCc1ccccc1,,> 100
CC(C)CC(=O)NC(C(=O)NC(C(=O)NC(CC(C)C)C(O)CC(=O)NC(C)C(=O)NC(CC(C)C)C(O)CC(=O)O)C(C)C)C(C)C (stereo unspecified),,> 100
COc1ccc2[nH]cc(C(=O)C(=O)NC34CC5CC(CC(C5)C3)C4)c2c1,,> 100
C/C(CC(=O)Nc1cc(C)ccc1C)=N/N=C(N)N,,> 100
O=c1[nH]nc(Cc2ccccc2)n1CCCl,,> 100
O=C(O)c1nc2ccc(C(F)(F)F)cc2nc1NCc1ccc(Cl)c(Cl)c1,,37.8
COc1ccc(OC)c(C2CCc3c(cnc4nc(N)nc(N)c34)C2)c1 (stereo unspecified),,17.2
CC(=O)C1Cn2c(=O)c3cc4ccccc4cc3c(=O)n2C=C1C (stereo unspecified),,> 100
COc1cc(/C(=C2/O[C@@H]([C@H]3COC(C)(C)O3)[C@H]3OC(C)(C)O[C@@H]23)c2ccc3ccccc3c2)cc(OC)c1OC,5.74,> 100
COc1ccc(-c2c3c(n(C4OC(COC(C)=O)C(OC(C)=O)C(OC(C)=O)C4OC(C)=O)c(=S)c2C#N)CCC3)cc1 (stereo unspecified),,> 100
